In PubChem BioAssay AID686978 (National Center for Advancing Translational Sciences (NCATS), 2013):
Out of some 420,000 compounds screened, about 64,000 (15%) were called active. The inconclusive results got no clear call from the source; some entries with a clear call stand among them for comparison. Calls come from the whole dose curve; as a rule, active = well fitted inhibition curve with a large enough effect; inconclusive = small, poorly fitted or top-dose-only effect; inactive = flat fitted curve, though single readings scatter. Potencies of inconclusive entries are left out as doubtful fits.
% is set by controls: 0 for no effect and ±100 for the full control effect; potency is the fitted concentration of half-maximal effect; tags give direction and shape of the fitted curve.

Assay: qHTS for Inhibitors of human tyrosyl-DNA phosphodiesterase 1 (TDP1): qHTS in cells in absence of CPT; note: nearly all actives have a fitted effect of over 55% in size
Conditions: DT40 Tdp1-/- hTDP1 cells, no CPT, ATP luminescence, 48 h; activity change, negative = growth inhibition: at 46.2 µM (top of the series) unless noted
Outline: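 No-CPT arm: Tdp1-/-;hTDP1 DT40 cells (400/well) plus compounds, incubated ≥48 hr at 37 °C. Readout CellTiter-Glo luminescence.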
With `Cc1oc(-c2ccccc2)nc1Cn1c(SCc2cccc(C(F)(F)F)c2)nc2cccnc21` the Potency was active: 25.9 µM.
For `COc1ccc(C(=O)Nc2cnc3ccccn3c2=O)cc1`, the activity change, negative = growth inhibition was inconclusive: -31% [inhibitor].
For `CCCOc1ccc(C(=O)Nc2ccc(S(=O)(=O)NC3=NCCCCC3)cc2)cc1`, the Potency was active: 20.6 µM.
With `CCn1ccc2c(OCC(=O)NCCc3ccc(OC)c(OC)c3)cccc2c1=O` the Potency was inconclusive [inhibitor, single point].
For `O=C(NCCC(=O)N1CCN(c2ccccn2)CC1)c1ccc(Cl)cc1`, the Potency was inconclusive [inhibitor, partial curve, poor fit].
For `COc1ccc([C@H]2N[C@]3(CCCN(Cc4ccc(C)cc4)C3=O)[C@H]3C(=O)N(C)C(=O)[C@@H]23)cc1`, the activity change, negative = growth inhibition was inconclusive: -35.2% [inhibitor].
With `Brc1ccc(C2=Nn3c(nnc3-c3cccnc3)SC2)s1` the Potency was inconclusive [inhibitor, partial curve].
For `CC(C)=CCC[C@H](C)C[C@@H]1Cc2[nH][nH]c(=O)c2[C@H](c2ccc(F)cc2)O1`, the Potency was active: 20.6 µM.
In the case of `Cc1cc(Cl)ccc1C(=O)C1CCCN(C(=O)c2ccsc2)C1` (stereo unspecified), the Potency is reported as inconclusive [inhibitor, single point].
In the case of `CCSc1nnc(N2C(=O)c3ccc(C(=O)c4ccc(C(=O)O)cc4)cc3C2=O)s1`, the Potency is reported as “inactive”.
In the case of `COc1ccc(C2=NN(C(=O)CSc3cn(C)c4ccccc34)C(c3ccc(OC)cc3)C2)cc1` (stereo unspecified), the Potency is reported as inconclusive [inhibitor, single point].
For `COc1ccc(CC2(CO)CCN(S(=O)(=O)c3sccc3C)CC2)cc1`, the Potency was inconclusive [inhibitor, single point].
With `CC(=O)c1c(C(C)=O)c(C)n(-c2nc(-c3cccs3)c(C)s2)c1C` the Potency was inconclusive [inhibitor, single point].
With `CC1(C(=O)NNC(=O)c2ccc([N+](=O)[O-])cc2)CC1(Br)Br` (stereo unspecified) the Potency was inconclusive [inhibitor, single point].
In the case of `CCOC(=O)c1c(C)[nH]c(C)c1C(=O)CN1C(=O)NC(CC(C)C)C1=O` (stereo unspecified), the Potency is reported as inconclusive [inhibitor, single point].
With `Cc1nc(N2CCOCC2)[nH]c(=O)c1C(O)C(Cl)(Cl)Cl` (stereo unspecified) the Potency was “inactive”.
With `COC(=O)c1ccccc1NC(=O)CN1CCN(C23CC4CC(CC(C4)C2)C3)CC1` the Potency was inconclusive [inhibitor, single point].
With `CCc1nc2ccc(C(=O)N3CCN(c4cccc(C(F)(F)F)c4)CC3)cc2nc1CC` the Potency was inconclusive [inhibitor, single point].
In the case of `Cc1cc(C)cc(NS(=O)(=O)c2ccc3oc(=O)ccc3c2)c1`, the Potency is reported as inconclusive [inhibitor, partial curve].
In the case of `CCOCCCN1C(=O)C2C(C(=O)Nc3ccc(OCC)cc3)C3C=CC2(O3)C1C(=O)NC1CCCCC1` (stereo unspecified), the Potency is reported as “inactive”.
In the case of `Cc1ccc(NC(=O)CCc2ccccc2)cc1S(=O)(=O)N1CCOCC1`, the Potency is reported as inconclusive [inhibitor, single point].
In the case of `CC1(Oc2ccc(-n3ccnc3)cc2)CCN(Cc2cccn2-c2nccs2)C1` (stereo unspecified), the Potency is reported as active: 18.4 µM.
For `CC(C)N(Cc1ccccc1)C(=S)NC1CCCCC1`, the Potency was inconclusive [inhibitor, single point].
In the case of `COc1ccc(NS(=O)(=O)c2ccc(NC(=O)C3CCCO3)cc2)cc1` (stereo unspecified), the Potency is reported as inconclusive [inhibitor, partial curve].
In the case of `CC(=O)c1c(C)[nH]c(C(=O)Nc2ccc(Cl)c(S(=O)(=O)N(C)C)c2)c1C`, the Potency is reported as inconclusive [inhibitor, single point].
In the case of `O=C(Nc1ccc2c(c1)OCO2)c1ccc(NC2CC2)c([N+](=O)[O-])c1`, the Potency is reported as active: 20.6 µM.
With `CCc1ccc([C@@H]2C[C@H]3[C@@H](CN2S(=O)(=O)c2ccc(C)cc2)C(=O)C[C@@H](c2ccc(Cl)cc2)N3S(=O)(=O)c2ccccc2C)cc1` the Potency was inconclusive [inhibitor, single point].
For `CCOc1ccc(C2OC(=O)Cc3cc(OC)c(OC)cc32)cc1` (stereo unspecified), the Potency was “inactive”.
For `CN(C(=O)CSc1nc2ccccc2n1CC(=O)N(C)C1CCCCC1)c1ccccc1`, the Potency was active: 18.4 µM.
In the case of `Cc1cccc(C(=O)NNC(=O)Nc2ccccc2)c1`, the Potency is reported as “inactive”.
For `CN(C)S(=O)(=O)c1ccc(C(=O)NCc2ccc3[nH]c4c(c3c2)CCCC4)cc1`, the Potency was inconclusive [inhibitor, single point].
In the case of `COc1ccc(S(=O)(=O)N2CCOC2CNC(=O)C(=O)NCc2ccccc2OC)cc1` (stereo unspecified), the Potency is reported as inconclusive [inhibitor, full curve, poor fit].
In the case of `O=C(NC(=S)Nc1cc(S(=O)(=O)N2CCOCC2)ccc1O)c1ccco1`, the Potency is reported as inconclusive [inhibitor, single point].
For `CCOC(=O)C(=O)N1CCC(C(=O)OCC)CC1`, the Potency was “inactive”.
In the case of `CCOC(=O)N1CCN(C(=O)C[C@@H]2C[C@@]3(C(=O)OC)CCCCC=C3N(Cc3ccco3)C2=O)CC1`, the Potency is reported as inconclusive [inhibitor, single point].
In the case of `Cc1cccc(NC(=O)CSc2nc3ccccc3nc2N2CCCCC2)c1`, the Potency is reported as inconclusive [inhibitor, single point].
With `Cc1ccc(CSCC(=O)NCc2cccs2)cc1` the Potency was “inactive”.
For `COc1ccc(NC(=O)C2CCN(S(=O)(=O)c3cc(-c4noc(C)n4)ccc3C)CC2)cc1`, the Potency was inconclusive [inhibitor, partial curve].
For `Cc1ccc(C)c(NC(=O)c2cc(S(=O)(=O)NCCc3ccccc3)ccc2F)c1`, the Potency was inconclusive [inhibitor, single point].
For `CCOC(=O)[C@]12CCCC=C1N(Cc1ccc3c(c1)OCO3)C(=O)[C@H](CC(=O)N1CCN(C(=O)c3ccco3)CC1)C2`, the Potency was inconclusive [inhibitor, single point].
For `COc1ccccc1C(c1nnnn1C(C)(C)C)N1CCCc2ccccc21` (stereo unspecified), the Potency was inconclusive [inhibitor, single point].
In the case of `Cc1ccccc1OCC(=O)NCCC1=CCCCC1`, the Potency is reported as inconclusive [inhibitor, single point].
In the case of `CCS(=O)(=O)C1=NSC2=NC(=O)/C(=C\c3ccc(OC(=O)c4ccco4)cc3)C(=N)N21`, the Potency is reported as “inactive”.
With `COCc1nc2ccccc2n1Cc1ccccc1C` the Potency was inconclusive [inhibitor, partial curve].
For `O=C(Oc1c(CN2CCOCC2)cc(Cl)c2cccnc12)c1ccc(F)cc1`, the Potency was active: 5.17 µM.
For `CCOc1cc(C(=O)N(Cc2ccccc2)c2ccc(C)cc2)ccc1OCC(=O)N1CCOCC1`, the activity change, negative = growth inhibition was inconclusive: -31.4% [inhibitor].
With `CCN(CC)C(=O)C1=C(C)N(CCCOC)C(=O)C(CC(=O)NCCN2CCOCC2)C1` (stereo unspecified) the Potency was “inactive”.
In the case of `CN(C)c1ccc(-c2nccc(NCCN3CCOCC3)n2)cc1`, the Potency is reported as inconclusive [inhibitor, single point].
In the case of `CCOC(=O)C1CCCN(C(=O)c2ccc3c(c2)N(Cc2ccc(Cl)cc2)C(=O)c2ccccc2S3=O)C1` (stereo unspecified), the Potency is reported as inconclusive [inhibitor, single point].
With `C[C@H](CO)N1C[C@H](C)[C@@H](CN(C)S(=O)(=O)c2ccc(F)cc2)Oc2ccc(NC(=O)NC3CCCCC3)cc2C1=O` the Potency was “inactive”.
For `CCC(C)NCCOCCOc1cc(C)c(Cl)c(C)c1` (stereo unspecified), the Potency was active: 14.6 µM.
In the case of `COc1ccccc1CNC(=O)CSc1nn2c(=O)c(C(C)(C)C)nnc2s1`, the activity change, negative = growth inhibition is reported as inconclusive: -33.8% [inhibitor].
For `CCOc1ccc(Nc2nc(N)nc(CSC(=S)N3CCN(c4ccccc4)CC3)n2)cc1`, the Potency was active: 18.4 µM.
For `COc1cccc(NC(=O)Nc2ccc3nc(N4CCN(C)CC4)cc(C)c3c2)c1`, the Potency was active: 14.6 µM.
For `O=C(CSc1nnc(CNc2ccc(Cl)cc2)n1Cc1ccccc1)NCc1ccco1`, the Potency was inconclusive [inhibitor, full curve, poor fit].
For `O=C(C1CCN(S(=O)(=O)Cc2ccccc2)CC1)N1CCCc2ccccc21`, the Potency was inconclusive [inhibitor, single point].
For `COc1ccc(-n2c(SCC(=O)Nc3nccs3)nnc2-c2ccoc2C)cc1`, the Potency was “inactive”.
In the case of `Cc1cc(C)c2oc(=O)cc(CN3CCC(C)CC3)c2c1`, the Potency is reported as active: 25.9 µM.
With `O=C(NC(=S)Nc1ccc(NC(=O)c2cccs2)cc1)c1ccc([N+](=O)[O-])cc1` the Potency was “inactive”.
In the case of `COCCCNCCCCOc1ccc(OCc2ccccc2)cc1`, the Potency is reported as active: 23.1 µM.
With `COc1cccc(NC(=O)Nc2ccccc2SC)c1` the Potency was inconclusive [inhibitor, single point].
In the case of `C=CCC[C@H](Cc1ccc(F)cc1)C(=O)OC[C@@H](NC(=O)[C@@H](CC=C)CC(=O)N(CCO)Cc1ccccc1)C(C)(C)C`, the Potency is reported as inconclusive [inhibitor, single point].
With `O=C(CSc1nc2ccsc2c(=O)n1-c1ccc(Br)cc1)NCc1ccccc1` the Potency was inconclusive [inhibitor, single point].
With `COc1ccc([N+](=O)[O-])cc1N(CC(=O)NCCSc1ccccc1)S(C)(=O)=O` the Potency was inconclusive [inhibitor, partial curve].
With `CC(=NC1CC1)c1c(-c2ccccc2)[nH]n(-c2nc3ccccc3s2)c1=O` the Potency was active: 22.4 µM.
With `FC(F)(F)c1cc(-c2ccco2)nc(N2CCN(Cc3ccccc3)CC2)n1` the Potency was inconclusive [inhibitor, single point].
